From PubChem BioAssay AID488969 (Vanderbilt High Throughput Screening Facility, 2010) come the findings set out here.

Over roughly 110,000 compounds, “z-score” has its median near -0.1; the highest 2% begin near 2. Some of the results follow. The source made the active and inactive calls.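 Rule for the calls: active = z-score in the third read window above 3 or below -3; inactive = the rest.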

The assay has as its target Metabotropic glutamate receptor 8 (Rattus norvegicus) (UniProt P70579). In words: rat mGluR8 modulators via GIRK flux, primary screen, cell-based, thallium flux, HTS (AID 488969). Conditions: HEK293 rat mGluR8, GIRK (G protein-gated inwardly rectifying potassium channel) thallium flux, FluoZin2; at 10 µM; stronger effect = higher value; submaximal glutamate (EC20) added with thallium.
Sequence of UniProt P70579 (P70579 whole entry, looked up): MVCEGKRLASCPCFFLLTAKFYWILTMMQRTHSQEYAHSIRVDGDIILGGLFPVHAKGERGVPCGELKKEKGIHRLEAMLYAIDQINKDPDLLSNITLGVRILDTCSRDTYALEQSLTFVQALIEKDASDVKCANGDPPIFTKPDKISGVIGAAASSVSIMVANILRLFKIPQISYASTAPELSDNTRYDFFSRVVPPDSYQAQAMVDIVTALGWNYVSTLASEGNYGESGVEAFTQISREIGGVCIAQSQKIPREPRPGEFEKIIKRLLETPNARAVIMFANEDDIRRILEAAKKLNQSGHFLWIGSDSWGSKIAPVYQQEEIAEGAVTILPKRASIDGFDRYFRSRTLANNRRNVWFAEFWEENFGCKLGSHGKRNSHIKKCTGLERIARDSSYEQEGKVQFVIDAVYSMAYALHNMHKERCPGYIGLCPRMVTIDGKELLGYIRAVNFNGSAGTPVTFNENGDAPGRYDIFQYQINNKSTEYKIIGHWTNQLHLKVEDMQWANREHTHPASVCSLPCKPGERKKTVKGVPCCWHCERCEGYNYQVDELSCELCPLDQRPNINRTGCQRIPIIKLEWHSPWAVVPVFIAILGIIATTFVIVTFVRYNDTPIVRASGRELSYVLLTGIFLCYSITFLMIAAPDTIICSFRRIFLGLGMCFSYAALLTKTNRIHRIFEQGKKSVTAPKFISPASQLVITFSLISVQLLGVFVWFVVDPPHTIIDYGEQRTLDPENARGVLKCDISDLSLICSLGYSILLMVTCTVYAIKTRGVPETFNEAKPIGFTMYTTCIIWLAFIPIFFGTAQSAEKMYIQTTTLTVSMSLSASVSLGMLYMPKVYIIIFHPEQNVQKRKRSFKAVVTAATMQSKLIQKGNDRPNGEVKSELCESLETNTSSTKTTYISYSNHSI
As for `Cc1cccc(NC(=O)COc2ccc(Br)cc2/C=N/O)c1`, the z-score is 1.86.

`CC1CCN(C(=O)CSc2nc3c(cnn3-c3ccccc3)c(=O)[nH]2)CC1`: the z-score was -0.345.

For the molecule `Cc1occc1C(=O)NN1C(=O)C2C3CCC(O3)C2C1=O` (stereo unspecified), the z-score stood at 0.0433.

For the molecule `CC(C)COC(=O)C(C#N)c1nc2ccccc2nc1N1CCN(Cc2ccccc2)CC1` (stereo unspecified), the z-score is -0.213.

As to `CC(C)n1c(N2CCN(C(=O)c3cccs3)CC2)nc2ccccc21`, the z-score was -0.352.

With `Cc1cc(C)n2nc(C(=O)Nc3ccc4c(c3)OCO4)cc2n1`, the z-score is -0.0466.

Molecule `CCOC(=O)c1oc2cccc(OC(C)=O)c2c1C` gave a z-score of -0.447.

Molecule `CCOc1ccc(-n2c(N)c(C(=O)NCc3ccco3)sc2=S)cc1` had a z-score of 0.944.

Consider `CCCCCCn1c(CN2CCCCC2)nc2c1c(=O)n(C)c(=O)n2C`, for which the z-score is -0.478.

Turning to `Clc1ccc2[nH]c3c(NCC4CCCO4)ncnc3c2c1` (stereo unspecified), the z-score is active: -3.05.

Turning to `CCOC(=O)C1=C(c2ccccc2)N2CCN=C2S1`, the z-score turned out to be 0.217.

`CC(C)c1ccc(C2NC(=S)NC3=C2C(=O)CC(C)(C)C3)cc1` (stereo unspecified) showed a z-score of -0.0107.

Regarding `COc1ccc(F)c(C2C(C#N)=C(N)Oc3n[nH]c(C(C)(C)C)c32)c1` (stereo unspecified), the z-score is -0.303.

As to `COc1ccc(OC)c(NC(=O)C2CCCCC2C(=O)O)c1` (stereo unspecified), the z-score was 0.311.

Take `COn1c(SCC(N)=O)nc2ccccc2c1=O`: the z-score came out at 0.473.

Regarding `COc1cc(C2C(C(N)=O)=C(C)Nc3nc(CCCO)nn32)cc(OC)c1OC` (stereo unspecified), the z-score is 0.279.

In the case of `CS(=O)(=O)N1CCN(c2ccccc2NC(=O)c2cccnc2Cl)CC1`, the z-score was -0.117.

With `Cc1nnc(SCCN2CCOCC2)c2nn(-c3ccccc3F)c(C)c12`, the z-score is -0.0917.

On to `CN(C)C(=O)c1cc(F)ccc1Sc1cc(Cl)ccc1Cl`, for which the z-score is -0.409.

In turn, `CCOc1ccc(NC(=O)c2ccc(C#CC(C)(C)O)cc2)cc1` had a z-score of 0.116.

`CCOc1ccc2[nH]cc(C(=O)O)c(=O)c2c1` yielded a z-score of 0.172.

The molecule `O=C(CCCSc1nc(-c2ccco2)cc(C(F)(F)F)n1)NCC1CCCO1` (stereo unspecified) returned a z-score of -0.496.

Regarding `CC(=O)N1CCC(N(CCN2CCOCC2)C(=S)Nc2ccccc2C)CC1`, the z-score was -0.103.

Molecule `N#Cc1c(SCc2nc3ccccc3[nH]2)nc2c(c1C(F)(F)F)CCC2` had a z-score of -1.13.

Regarding `COc1ccc2nc(SCC(=O)NC3CCCc4ccccc43)[nH]c2c1` (stereo unspecified), the z-score stood at 0.0427.

Molecule `C=CCn1c(N)c(C(=O)OC(C)CC)c2nc3ccccc3nc21` (stereo unspecified) displayed a z-score of -0.622.

Molecule `Cc1noc(C)c1COc1ccc(C(=O)OCC(=O)Nc2ccc3c(c2)OCO3)cc1` had a z-score of 0.261.

The molecule `O=C(N/N=C\c1ccc(Sc2ccccn2)o1)c1cccc(Br)c1` registered a z-score of 1.77.

In the case of `CCSc1nc2c(sc3nc(C)cc(C)c32)c(=O)[nH]1`, the z-score is -1.43.

Molecule `Cc1ccc(C(=O)N/C(=C\c2ccccc2)C(=O)OCc2ccccc2)cc1` came in with a z-score of -0.52.

Turning to `COc1cccc(-c2nnc(SCc3nc4ccccc4[nH]3)n2N)c1`, the z-score is -0.28.
